{
  "source": "paper PMC4336329",
  "about": "(PLoS ONE, 2015)",
  "note": "Hit rate of the full screen: of about 310,000 compounds, about 14,000 (4.5%) showed an effect of 50% or more. Effects have a minus sign here. This is one part of the list.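 Note: peak tail current of the secondary pulse compared with the same well before compound.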",
  "data": [
    {"molecular_target": "human ether-à-go-go-related gene (hERG) potassium channel (human, UniProt Q12809)", "sequence (Q12809 whole entry, looked up)": "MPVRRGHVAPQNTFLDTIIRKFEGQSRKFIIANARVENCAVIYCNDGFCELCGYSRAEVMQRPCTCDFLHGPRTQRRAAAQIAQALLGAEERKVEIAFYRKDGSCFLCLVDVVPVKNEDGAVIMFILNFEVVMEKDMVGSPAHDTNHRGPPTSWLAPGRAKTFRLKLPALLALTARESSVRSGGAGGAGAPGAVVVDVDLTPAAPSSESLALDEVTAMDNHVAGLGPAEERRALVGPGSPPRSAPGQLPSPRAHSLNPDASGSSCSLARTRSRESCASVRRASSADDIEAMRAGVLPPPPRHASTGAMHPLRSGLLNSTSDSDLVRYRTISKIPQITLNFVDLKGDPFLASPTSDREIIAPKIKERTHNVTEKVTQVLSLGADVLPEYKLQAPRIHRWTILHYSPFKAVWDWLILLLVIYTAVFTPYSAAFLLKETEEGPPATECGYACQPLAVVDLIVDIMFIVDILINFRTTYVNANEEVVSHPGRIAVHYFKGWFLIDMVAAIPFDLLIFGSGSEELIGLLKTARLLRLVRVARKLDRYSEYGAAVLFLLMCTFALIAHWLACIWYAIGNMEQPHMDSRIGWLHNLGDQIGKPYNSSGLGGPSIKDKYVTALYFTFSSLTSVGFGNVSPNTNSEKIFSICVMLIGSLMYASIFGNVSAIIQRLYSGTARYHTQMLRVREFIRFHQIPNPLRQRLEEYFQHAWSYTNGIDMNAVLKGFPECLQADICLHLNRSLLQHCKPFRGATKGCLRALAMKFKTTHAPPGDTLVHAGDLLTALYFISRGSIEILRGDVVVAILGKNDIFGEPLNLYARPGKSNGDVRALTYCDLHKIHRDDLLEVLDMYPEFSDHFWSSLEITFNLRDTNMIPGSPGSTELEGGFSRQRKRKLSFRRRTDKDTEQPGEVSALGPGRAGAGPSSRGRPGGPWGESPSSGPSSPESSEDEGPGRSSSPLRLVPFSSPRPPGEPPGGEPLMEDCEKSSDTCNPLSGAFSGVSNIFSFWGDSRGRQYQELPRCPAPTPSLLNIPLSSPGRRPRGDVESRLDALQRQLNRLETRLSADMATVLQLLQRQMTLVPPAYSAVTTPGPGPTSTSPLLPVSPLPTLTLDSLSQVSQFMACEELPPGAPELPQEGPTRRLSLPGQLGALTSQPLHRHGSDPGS", "test": "primary screen, population patch clamp on CHO cells stably expressing hERG", "units": {"hERG current change (%, negative = inhibition) at 10uM": "%"}, "values": [
      {"compound": "CCN(Cc1ccccc1)C(=O)COC(=O)c1cc(S(=O)(=O)Nc2c(C)n(C)n(-c3ccccc3)c2=O)ccc1C", "hERG current change (%, negative = inhibition) at 10uM": -74.9},
      {"compound": "CCSc1cc(C)nc2ncnn12", "hERG current change (%, negative = inhibition) at 10uM": -0.742},
      {"compound": "O=S1(=O)CCOC[C@H](Cc2ccccc2)N1Cc1cccc(C(F)(F)F)c1", "hERG current change (%, negative = inhibition) at 10uM": 6.22},
      {"compound": "CCOC(=O)CC(c1ccc([N+](=O)[O-])cc1)n1c(C)ccc1C", "note": "(stereo not shown)", "hERG current change (%, negative = inhibition) at 10uM": -35.9},
      {"compound": "COc1ccc(CNC(=O)Cn2cnc3c(=O)n(C)c(=O)n(C)c32)cc1", "hERG current change (%, negative = inhibition) at 10uM": 2.8},
      {"compound": "Cc1ccc(C(=O)Nc2ccccc2C(=O)O)cc1S(=O)(=O)NCc1ccccc1", "hERG current change (%, negative = inhibition) at 10uM": 9.8},
      {"compound": "CC1CCCN(c2ncnc3c2cnn3-c2ccc(Cl)cc2)C1", "note": "(stereo not shown)", "hERG current change (%, negative = inhibition) at 10uM": 11.7},
      {"compound": "O=C1Cc2ccccc2C(=O)N1OCc1ccc(Cl)cc1Cl", "hERG current change (%, negative = inhibition) at 10uM": 18.5},
      {"compound": "Cc1ccc(C(=O)Nc2nc3ccc(Cl)cc3s2)o1", "hERG current change (%, negative = inhibition) at 10uM": 4.93},
      {"compound": "NC(=O)c1ccc(Oc2ncc(C(F)(F)F)cc2Cl)cc1", "hERG current change (%, negative = inhibition) at 10uM": -3.77},
      {"compound": "CCOC(=O)c1c(C)[nH]c(C(=O)OCC(=O)NC2(C#N)CCCCC2)c1C", "hERG current change (%, negative = inhibition) at 10uM": -15.9},
      {"compound": "COc1ccc2c(CC(=O)OCC(=O)Nc3ccccc3[N+](=O)[O-])coc2c1", "hERG current change (%, negative = inhibition) at 10uM": 19.4},
      {"compound": "COc1cc(S(=O)(=O)n2cnc(C)c2)ccc1Cl", "hERG current change (%, negative = inhibition) at 10uM": 2.87},
      {"compound": "COc1cccc(CN(CC(=O)NC2CCCC2)C(=O)CCC(=O)Nc2cc(C)on2)c1", "hERG current change (%, negative = inhibition) at 10uM": -7.79},
      {"compound": "CCOC(=O)c1ccc(NC(=O)Cn2cnc3cc(C)c(C)cc32)cc1", "hERG current change (%, negative = inhibition) at 10uM": 11.2},
      {"compound": "CCCS(=O)(=O)c1nc(S(=O)(=O)c2ccc(C)cc2)c(N2CCC(C(N)=O)CC2)s1", "hERG current change (%, negative = inhibition) at 10uM": -18.2},
      {"compound": "CC(C)(C)C(=O)NC(=S)NCc1ccccc1", "hERG current change (%, negative = inhibition) at 10uM": 1.99},
      {"compound": "CC(C)=CC1C(C(=O)NCCOc2ccccc2)C1(C)C", "note": "(stereo not shown)", "hERG current change (%, negative = inhibition) at 10uM": 12.2},
      {"compound": "O=C1NN(c2ccc(F)cc2)C(=O)/C1=C/c1cccs1", "hERG current change (%, negative = inhibition) at 10uM": 7.57},
      {"compound": "C/C(=N\\NC(=O)Cn1cnc2ccccc21)c1cccs1", "hERG current change (%, negative = inhibition) at 10uM": 16},
      {"compound": "CC1=C/C(=C(/c2cc(C)c(O)c(Br)c2)c2ccccc2S(=O)(=O)[O-])C=C(Br)C1=O.[NH4+]", "hERG current change (%, negative = inhibition) at 10uM": 14.8},
      {"compound": "O=C(CC1SC(=Nc2ccc3c(c2)OCCO3)NC1=O)Nc1ccc(F)cc1F", "note": "(stereo not shown)", "hERG current change (%, negative = inhibition) at 10uM": 8.62},
      {"compound": "Cc1ccc(OCCC(=O)Nc2ccccc2C(=O)NC2CC2)cc1", "hERG current change (%, negative = inhibition) at 10uM": -2.73},
      {"compound": "COc1ccc(CCn2c(=N)c(C(=O)NCCN3CCOCC3)cc3c(=O)n4cccc(C)c4nc32)cc1OC", "hERG current change (%, negative = inhibition) at 10uM": -97.8},
      {"compound": "COCCNC(=S)N1CCCN(c2nc3cc(C)ccc3cc2C#N)CC1", "hERG current change (%, negative = inhibition) at 10uM": -28.1},
      {"compound": "NS(=O)(=O)c1ccc(N=Cc2c(O)n(-c3nccs3)c(=O)c3ccccc23)cc1", "hERG current change (%, negative = inhibition) at 10uM": 7.12},
      {"compound": "CCOC(=O)c1sc(N)c(C(N)=O)c1C", "hERG current change (%, negative = inhibition) at 10uM": 8.49},
      {"compound": "CC(C)(C)C1CCc2c(C(=O)NNC(=O)CCCC(=O)O)csc2C1", "note": "(stereo not shown)", "hERG current change (%, negative = inhibition) at 10uM": 16.4},
      {"compound": "COc1ccc(CN(C)C(=S)Nc2ccc(Cl)cc2)cc1", "hERG current change (%, negative = inhibition) at 10uM": -20.7},
      {"compound": "COc1ccc(C(c2c(O)ccc3ccccc23)N2CCOCC2)c(OC)c1", "note": "(stereo not shown)", "hERG current change (%, negative = inhibition) at 10uM": 12.9},
      {"compound": "O=C(NCC1CCCO1)c1ccc(NS(=O)(=O)c2cccc([N+](=O)[O-])c2)cc1", "note": "(stereo not shown)", "hERG current change (%, negative = inhibition) at 10uM": -17.2},
      {"compound": "O=C(NCc1cccnc1)Nc1cc(Cl)cc(Cl)c1", "hERG current change (%, negative = inhibition) at 10uM": -4.44},
      {"compound": "C=CCNC(=S)Nc1ccccc1-c1nnc2n1CCCCC2", "hERG current change (%, negative = inhibition) at 10uM": 17.4},
      {"compound": "COc1cc(C(=O)OCC(=O)NCc2ccccc2)cc(NC(=O)c2ccco2)c1OC", "hERG current change (%, negative = inhibition) at 10uM": 1.36},
      {"compound": "COc1ccc(C2CC(c3ccc([N+](=O)[O-])cc3)=NN2C(C)=O)cc1", "note": "(stereo not shown)", "hERG current change (%, negative = inhibition) at 10uM": -64.5},
      {"compound": "O=C(COC(=O)/C=C/c1cccs1)Nc1ccccc1Cl", "hERG current change (%, negative = inhibition) at 10uM": 15.8},
      {"compound": "Cc1cc(NC(=O)CSc2nnc(NC(=O)C3CC(=O)N(c4ccccc4C)C3)s2)no1", "note": "(stereo not shown)", "hERG current change (%, negative = inhibition) at 10uM": 2.51},
      {"compound": "COc1cccc(NC(=O)CN(C)C(=O)c2ccc(-n3cncn3)c([N+](=O)[O-])c2)c1", "hERG current change (%, negative = inhibition) at 10uM": -44.8},
      {"compound": "O=C(O)c1ccc(Cl)c(S(=O)(=O)N2CCCCCC2)c1", "hERG current change (%, negative = inhibition) at 10uM": -8.34},
      {"compound": "CN(c1ccc(OCC(=O)OCC(=O)Nc2c(F)c(F)c(F)c(F)c2F)cc1)S(=O)(=O)c1ccc(F)cc1", "hERG current change (%, negative = inhibition) at 10uM": 8.61},
      {"compound": "COc1c(C(=O)Nc2c(C)n(C)n(-c3ccccc3)c2=O)ccc2ccccc12", "hERG current change (%, negative = inhibition) at 10uM": 1.5},
      {"compound": "COc1ccc(OC)c(S(=O)(=O)N2CCC(C(=O)NCc3ccccc3)CC2)c1", "hERG current change (%, negative = inhibition) at 10uM": -9.9},
      {"compound": "O=C(NCc1ccc(OC(F)(F)F)cc1)C1CC(c2cccc(F)c2)=NO1", "note": "(stereo not shown)", "hERG current change (%, negative = inhibition) at 10uM": -0.147},
      {"compound": "CCCSc1nnc(CSc2nc3nc(C)cc(C)n3n2)o1", "hERG current change (%, negative = inhibition) at 10uM": -4.91},
      {"compound": "CCN(Cc1ccccc1)C(c1ccc(Cl)cc1)c1nnnn1C(C)(C)C", "note": "(stereo not shown)", "hERG current change (%, negative = inhibition) at 10uM": -1.99},
      {"compound": "CC(C)(C)c1ccc(C(=O)NCCCn2ccnc2)cc1.Cl", "hERG current change (%, negative = inhibition) at 10uM": -11},
      {"compound": "CC(C)(C)SCCSC1=CC(=O)CC(c2ccccc2)C1", "note": "(stereo not shown)", "hERG current change (%, negative = inhibition) at 10uM": -7.61},
      {"compound": "CCOc1ccc(CC(=O)N2CCN=C2SCc2ccc([N+](=O)[O-])cc2)cc1", "hERG current change (%, negative = inhibition) at 10uM": 5.05},
      {"compound": "O=C(O)C(=O)Nc1nc(-c2ccc3c(c2)OCCO3)cs1", "hERG current change (%, negative = inhibition) at 10uM": 17.1},
      {"compound": "COc1ccc(C)cc1NC(=O)CSc1nnc(-c2ccco2)n1N", "hERG current change (%, negative = inhibition) at 10uM": -9.67},
      {"compound": "O=S(=O)(c1ccc(N2CCOCC2)c(Cl)c1)N1CCOCC1", "hERG current change (%, negative = inhibition) at 10uM": 15.5},
      {"compound": "CC(C)CSc1nc2c(=O)[nH][nH]c(=O)c2n1Cc1ccccc1", "hERG current change (%, negative = inhibition) at 10uM": 7.56},
      {"compound": "COC(=O)n1c(=O)oc2cc(S(=O)(=O)N3CCOCC3)ccc21", "hERG current change (%, negative = inhibition) at 10uM": -4.41},
      {"compound": "CN(C(=O)COC(=O)c1cc(S(=O)(=O)N2CCCCC2)ccc1N1CCOCC1)C1CCS(=O)(=O)C1", "note": "(stereo not shown)", "hERG current change (%, negative = inhibition) at 10uM": -6.63},
      {"compound": "Nc1no[n+]([O-])c1-c1ccccc1", "hERG current change (%, negative = inhibition) at 10uM": 28.3}
    ]}
  ]
}
